The source of these data is the RNAGym collection of RNA variant scans (doi:10.7554/elife.90254).

The source gives no read counts; variants with many changes may rest on few reads.

B1: LINE1-mini (parent)
chain: GGCAGAGCUCAACACAGCGUGGCAAAGUGGCUGUGGCUAGACUGCC

In this series the parent is B1. The experiment in a line: self-cleavage, relative activity (ratio to wild type); higher = more cleavage; in vitro, sequencing; the parent is a self-cleaving ribozyme.
Take A11C U20A C23A: the self-cleavage stood at 0.06.
Regarding A11C G27C U32C A39G, the self-cleavage came out at 0.01.
As to A11G A25U G40A, the self-cleavage amounted to 0.01.
As for A11U A12G C13G U28A U38A, the figure is 0.01.
Take A11U A12U A16U U32C C42G: the self-cleavage amounted to 0.01.
Turning to A11U A12U C13G C15A G17U C18A, the self-cleavage worked out at 0.03.
In the case of A11G C15A G22C A26G it was 0; in that of A11C G27U G30U G33C C37U, 0.04.
Take A11G G33A U34A G35U: the self-cleavage stood at 0.03.
With A11G G30U A41U, the self-cleavage was 0.01.
Turning to A11G G27U U32A, the self-cleavage amounted to 0.01.
A11G U20A G22U G33U: the self-cleavage stood at 0.02.
For A11U A16C G17A A26U G35C, the self-cleavage is 0.01.
As for A11U C13A A26G, the figure is 0.03.
For the variant A11U A14U A24C, the self-cleavage worked out at 0.05.
With A11U A14U A24G, the self-cleavage is 0.04.
With A11U C13A G22A A24U U28A, the self-cleavage was found to be 0.01.
For A11U C13U A14U U34G G36C U43C, the self-cleavage amounted to 0.01.
For the variant A11G G19C G21C, the self-cleavage amounted to 0.01.
As to A11U A12C G21U A26C A39U, the self-cleavage turned out to be 0.01.
As for A11G A12U C23A G29A, the figure is 0.04; as for A11U A26U U34A C45A, 0.
As to A11U A14U C31G, the self-cleavage was 0.01.
As for A11G C13A G35A U38C C46U, the figure is 0; as for A11G A14G A24U A26U U34A, 0.03; as for A11G A26C G29U U38A, 0.03.
As for A11G G17A C45U, the figure is 0.03.
In the case of A11G A12G U34C, the self-cleavage is 0.02.
Consider A11G A26C G40C, for which the self-cleavage turned out to be 0.
As for A11G A12U C15U U38G, the figure is 0; as for A11G G19U G33C, 0.02; as for A11U A24U A25G, 0.64.
In the case of A11G G22A G33C, the self-cleavage worked out at 0.02.
For A11G G17U G30U A39U, the self-cleavage was 0.01.
In the case of A11C G27A U43A it was 0.01.
For A11G G30A G33U, the self-cleavage came out at 0.03.
As for A11G G19U G33U A39C, the figure is 0.01; as for A11C G22U A25C G35C C37A, 0.02.
As for A11G A25C C31A U38G, the figure is 0; as for A11G A12G U32A G44U, 0.04; as for A11G U28A G33U A39U, 0.01.
In the case of A11G G33U A39U G40C A41C, the self-cleavage was 0.01.
In the case of A11G U28C U38G C46A, the self-cleavage was 0.
As for A11G G22U U28G, the figure is 0.04; as for A11G G35U G44U, 0.03; as for A11G G17C C31U C45A, 0.01.
As for A11G C37G C45U, the figure is 0.
On to A11G C23G G29A U34A, for which the self-cleavage worked out at 0.04.
In the case of A11C U34C C42U it was 0.04; in that of A11G G22U G30U, 0.02; in that of A11C G36A C42G, 0.01.
As for A11G G35U G36U C37U, the figure is 0.06; as for A11G G35U A39U C45A, 0.
As for A11C G33U G40C, the figure is 0.02; as for A11C U28G G30A U34C, 0.02; as for A11G G21U G36A U43C C46G, 0.05.
As for A11U A25C A39C, the self-cleavage was found to be 0.01.
As for A11G G33C C46A, the figure is 0.01; as for A11G A26G C31G, 0; as for A11G A12C A24G U34G G40A C46A, 0.
As for A11G G19U G29A G33A, the figure is 0.01.
As to A11G C18U U38G C42A U43A, the self-cleavage is 0.
Regarding A11G A16C C18A, the self-cleavage turned out to be 0.01.
Take A11G U28G C37U: the self-cleavage was determined as 0.07.
In the case of A11C G30U U43G, the self-cleavage came out at 0.
In the case of A11C G30U A41G, the self-cleavage was determined as 0.02.
On to A11G C15A G21U C23A G30A C37U, for which the self-cleavage was 0.04.
Turning to A11C G22C U28C C31A G35U, the self-cleavage is 0.01.
A11G C31U U32A: the self-cleavage is 0.03.
In the case of A11G G21U U38A it was 0.01; in that of A11G A12U G29A, 0.01; in that of A11G G22C C23G G35A U38G G40C U43G, 0.
In the case of A11U C13G A16C G19A C31A C45U, the self-cleavage is 0.
As to A11G C23G C37A, the self-cleavage worked out at 0.01.
As for A11G G19C A26U G30C G40A, the self-cleavage was found to be 0.01.
In the case of A11G C18U G19U it was 0.04.
As for A11C G29A G36U, the self-cleavage is 0.02.
In the case of A11C G35C C46U it was 0.02; in that of A11G A24G G40U, 0.01.
Consider A11U A16U G19A, for which the self-cleavage was found to be 0.04.
In the case of A11C U20A U43G it was 0; in that of A11G A14U G35C G44C, 0.02; in that of A11G G40A C46A, 0.
As for A11G G17U C45U, the self-cleavage worked out at 0.03.
In the case of A11G G19U G22U C23A G27U G35A G40C it was 0.01.
For A11G C18U U20A, the self-cleavage is 0.02.
With A11G A12C G17C G30C U32A, the self-cleavage is 0.
For the variant A11G G21C G22U G29U, the self-cleavage is 0.01.
Consider A11U A24C C31U, for which the self-cleavage is 0.01.
As for A11C G35A G40A, the figure is 0.03; as for A11U C13U A16G, 0.
Regarding A11C G27C G30A G33A, the self-cleavage came to 0.01.
As for A11U A14U U32A, the self-cleavage came out at 0.
A11U C13A C31G: the self-cleavage was found to be 0.02.
On to A11G G30C G33C, for which the self-cleavage worked out at 0.02.
Turning to A11G U20C C37U U38G, the self-cleavage is 0.01.
As for A11U A12G C15U G22U U38A, the self-cleavage was found to be 0.01.
As for A11G G27A U43A, the self-cleavage is 0.02.
Take A11C G27C C31U: the self-cleavage came to 0.
Take A11C U28C C45A: the self-cleavage is 0.03.
As for A11G G21A C46G, the self-cleavage amounted to 0.03.
As to A11G A16C G21A G33U C37A G40C, the self-cleavage stood at 0.01.
In the case of A11U A16C C18U it was 0.01.
A11U A24U G33U U38G: the self-cleavage is 0.02.
Take A11G G17C U28G C31G: the self-cleavage stood at 0.02.
In the case of A11G C15G A16G U32G G36C it was 0.
Regarding A11G G19A G36U, the self-cleavage came out at 0.02.
In the case of A11G C23U A24U U32G it was 0.
Regarding A11G C18A G19U, the self-cleavage was 0.06.
For A11G G35U G36C, the self-cleavage is 0.
For the variant A11G C13A G22U G36C A41C, the self-cleavage worked out at 0.
For the variant A11G G19U C42U C46A, the self-cleavage worked out at 0.
With A11G A41C C42G, the self-cleavage stood at 0.04.
Regarding A11G U32G G40U, the self-cleavage worked out at 0.04.
Take A11G U28G C46A: the self-cleavage worked out at 0.03.
With A11U A14G C18U A25U C37G, the self-cleavage was found to be 0.01.
As for A11G U43A G44C C46U, the figure is 0; as for A11G U20G G30U G33U U43C, 0.01; as for A11G A12C U28C G36A, 0.06.
As for A11G G19A G21U, the figure is 0.02; as for A11C U32A G35C U43C, 0.03.
On to A11G G35C C37U A39C, for which the self-cleavage was determined as 0.
In the case of A11U A14G G30U G33U C37A A41U it was 0.01; in that of A11G G17C U20G, 0.03; in that of A11U C13G G22A C37A, 0.02.
As for A11C U20G U28A C31A U43C, the self-cleavage worked out at 0.01.
On to A11G C18G A24U G29A G30C G44A, for which the self-cleavage came to 0.01.
In the case of A11C G29C G40U, the self-cleavage came out at 0.01.
On to A11C U34C C45G, for which the self-cleavage turned out to be 0.02.
As for A11G G30A C31A, the self-cleavage was 0.02.
In the case of A11G G21U G29C C31A it was 0.02.
Consider A11G A24U C42G, for which the self-cleavage is 0.01.
As for A11G A26G G35C, the self-cleavage worked out at 0.03.
Take A11C G22U C42A: the self-cleavage amounted to 0.01.
As for A11G A14C G21C, the self-cleavage is 0.
With A11C G30A U38G, the self-cleavage stood at 0.
For the variant A11U A12U U20C G29A G33C A39U, the self-cleavage is 0.02.
As for A11G U28A G29C U34G, the self-cleavage was 0.01.
With A11G U32A G35A, the self-cleavage came to 0.01.
Turning to A11C G36C G44U, the self-cleavage was 0.02.
Turning to A11G C31A A41G, the self-cleavage is 0.02.
For A11U A14G C18A G33A C45U, the self-cleavage came to 0.02.
With A11U A12U C31U, the self-cleavage worked out at 0.1.
Regarding A11C U28A C31U, the self-cleavage amounted to 0.01.
Consider A11C U20G A25G G29A, for which the self-cleavage turned out to be 0.04.
With A11G A24G C37U, the self-cleavage turned out to be 0.01.
Regarding A11G G21U G36C, the self-cleavage came out at 0.01.
Take A11G C15U G33U: the self-cleavage worked out at 0.08.
For A11U A12C C37U, the self-cleavage stood at 0.01.
For the variant A11C G27U U28C, the self-cleavage amounted to 0.01.
Regarding A11G C18U A25C U43C, the self-cleavage stood at 0.
As for A11U A12G A16U C45A, the figure is 0.02.
For the variant A11C G30C C37A G44C, the self-cleavage amounted to 0.
As to A11G A16U A24G G27A U28C, the self-cleavage was determined as 0.02.
Turning to A11G C13A G33U C46G, the self-cleavage stood at 0.02.
Regarding A11U A25U U32A, the self-cleavage was 0.03.
Turning to A11U A12C G19U, the self-cleavage was 0.02.
As for A11G C15A C42G, the figure is 0.01.
As to A11G A14C G19U G29U, the self-cleavage is 0.02.
As for A11G G36A A39C, the figure is 0.02; as for A11C U28G G35U, 0.01; as for A11U C13G G22U C31A C45A C46A, 0.
In the case of A11G U20A G22A G27C, the self-cleavage was found to be 0.01.
As for A11G C15U C31A C42U, the figure is 0.02.
In the case of A11G C31G G44C, the self-cleavage was found to be 0.
For A11C G27U G33C U34A G40A C42U C46U, the self-cleavage was 0.01.
In the case of A11G U32C G33A G40A G44A it was 0.
